Paper PMC6919601, “Identification of Plasmodium dipeptidyl aminopeptidase allosteric inhibitors by high throughput screening” (PLoS ONE, 2019)
Screen size: about 110,000 compounds; about 230 (0.21%) showed an effect of 50% or more. Some of the results follow.

What follows are molecules tested against DPAP1 (Plasmodium falciparum, UniProt Q8IIJ9) (assay: primary screen, percent inhibition; read by cleavage of a fluorogenic dipeptide substrate; higher = more effect of the substance).
Parameters: species or system P. falciparum D10 trophozoite lysates; single well
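Further: 30 min substrate incubation versus DMSO and 10 µM JCP410 controls.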

Chain of DPAP1 (Q8IIJ9 whole entry, looked up): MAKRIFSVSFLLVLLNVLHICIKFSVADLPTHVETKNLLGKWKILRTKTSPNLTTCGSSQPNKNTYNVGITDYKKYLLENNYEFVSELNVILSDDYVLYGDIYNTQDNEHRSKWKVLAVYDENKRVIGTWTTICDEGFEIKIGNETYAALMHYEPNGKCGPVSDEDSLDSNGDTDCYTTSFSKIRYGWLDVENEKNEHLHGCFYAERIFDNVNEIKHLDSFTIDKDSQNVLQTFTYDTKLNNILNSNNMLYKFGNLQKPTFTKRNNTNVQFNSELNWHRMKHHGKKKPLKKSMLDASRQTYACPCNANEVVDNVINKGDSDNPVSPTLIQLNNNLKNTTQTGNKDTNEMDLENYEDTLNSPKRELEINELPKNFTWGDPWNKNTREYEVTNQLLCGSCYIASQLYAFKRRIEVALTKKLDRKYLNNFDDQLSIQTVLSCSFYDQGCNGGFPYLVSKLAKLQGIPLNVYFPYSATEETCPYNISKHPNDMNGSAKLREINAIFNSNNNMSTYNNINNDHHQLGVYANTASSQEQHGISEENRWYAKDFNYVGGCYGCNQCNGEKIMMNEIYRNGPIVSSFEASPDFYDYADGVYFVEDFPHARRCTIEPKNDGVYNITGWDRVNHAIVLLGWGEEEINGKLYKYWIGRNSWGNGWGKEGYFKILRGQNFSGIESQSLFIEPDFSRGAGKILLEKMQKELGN

Structure (SMILES) | % Inhibition @ 10 uM
CCn1c(C(=O)NCCCN2CCc3ccccc3C2)cc2sc(Cl)cc21 | -6.68%
CC(=O)NC(Cc1ccccc1)c1ccc2c(c1)OCCCO2 (stereo not shown) | 3.6%
Cc1nc2c(-c3ccccc3)c(C)nn2c(C)c1CC(=O)NCC(C)c1ccccc1 (stereo not shown) | -6.09%
Cc1cc(C)c(S(=O)(=O)NCC(=O)N2CCc3ccccc3C2)c(C)c1 | 2.98%
CCn1c2ccccc2c2cc(CN3CCN(c4ccc([N+](=O)[O-])cc4)CC3)ccc21 | -0.969%
COc1ccc(-c2nc(CSCC(=O)N3CCN(C4CCCCC4)CC3)c(C)o2)cc1OC | 3.93%
Cc1ccc(C2C(C#N)=C(N)Oc3[nH]c(-c4ccccc4)nc32)o1 (stereo not shown) | -0.25%
COCCn1c(=O)c(C#N)cc2c(=O)n3cccc(C)c3nc21 | 4.3%
COc1ccc(S(=O)(=O)NCC(=O)NC2CC2)cc1OC | -2.82%
Cc1noc2ncnc(N3CCC(c4ccccc4)C3)c12 (stereo not shown) | -3.08%
COC(=O)c1ccc(/C=c2\sc3nc(-c4ccc(Br)cc4)nn3c2=O)cc1 | -5.2%
COc1ccc(NC(=O)CSc2nc3c(c(-c4ccccc4)c2C#N)CN(C)CC3)cc1OC | 0.851%
COc1ccccc1NC(=O)CN(Cc1ccc(C)cc1)S(=O)(=O)c1ccc(C)cc1 | -4.63%
CCOc1ccc(-c2cn(-c3ccc(C)c(F)c3)c(O)n2)cc1 | 2.4%
CN(C)CCN(Cc1ccco1)C(=O)c1oc2ccccc2c1NC(=O)COc1ccccc1 | -0.528%
CCN(CC)CCCNc1cnnc2c(Cl)cccc12 | -4.4%
CC(=O)Nc1ccc(NC(=O)C(C)N(c2ccccc2)S(C)(=O)=O)cc1 (stereo not shown) | -7.27%
CN(c1cccc2cccnc12)S(=O)(=O)c1ccccc1 | -7.93%
COc1ccc(C(=O)c2cnc3ccc(OC)cc3c2N2CCCC2)cc1 | 0.851%
O=C(COc1ccccc1)Nc1c(-c2ccc(F)cc2)nc2ccccn12 | -2.74%
Cc1ccc(-c2c(C#N)c(N)nc3c2CCCCCC3)cc1 | -4.32%
CC(C)n1c(CCNC(=O)c2ccccc2)nc2ccccc21 | -0.58%

Structure (SMILES) | % Inhibition @ 10 uM
CN(C)c1nc(Oc2ccc(O)nn2)nc(N2CCOCC2)n1 | -1.11%
CCOc1cc(C2NC(C(=O)O)CS2)ccc1OCc1cccc(F)c1 (stereo not shown) | -8.55%
O=C(CSCc1ccc(Cl)cc1)NC1CC2CCC1C2 (stereo not shown) | -2.24%
OCC1CCCN1C1CC2CCC1C2 (stereo not shown) | 3.24%
COc1ccc(C(=O)N(Cc2ccc(N(C)C)cc2)C2CCS(=O)(=O)C2)cc1 (stereo not shown) | 3.74%
COc1ccc(N2C(=O)C(Cl)=C(Nc3ccccc3)C2=O)cc1 | -3.19%
COc1ccc(C2(C#N)CCOCC2)cc1OC | 0.392%
N#C/C(=C\c1c[nH]nc1-c1ccc(F)cc1)c1nn(-c2ccccc2)c(N)c1C#N | -3.04%
Cc1ccc(S(=O)(=O)N(CC(=O)NC2CCCC2)c2cccc(C)c2)cc1 | -1.61%
COc1ccc(C2C(C#N)=C(N)OC3=C2C(=O)CC(c2ccccc2)C3)cc1Br (stereo not shown) | -1.93%
Cc1cccc(C(=O)O/N=C(\c2ccccc2)c2cccnc2)c1 | -2.87%
OCCSc1ccc(Cc2ccc(SCCO)cc2)cc1 | -1.77%
O=C(C1CCCN(c2ncnc3c2nc2n3CCCCC2)C1)N1CCN(C2CCCCC2)CC1 (stereo not shown) | 4.39%
CCSc1nnc(-c2cccnc2)n1-c1ccc(Cl)c(C)c1 | -3.21%
O=C(O)c1c2c(nc3ccc(S(=O)(=O)N4CCC(C(=O)NC5CCCC5)CC4)cc13)CCCCC2 | -1.37%
O=C(c1ccccc1)c1cnc2cc3c(cc2c1N1CCN(Cc2ccccc2)CC1)OCO3 | 0.695%
CN(CCC#N)C12CC3CC(CC(C3)C1)C2 | 4.63%
O=C(NC12CC3CC(CC(C3)C1)C2)c1cc2nc(-c3ccco3)cc(C(F)(F)F)n2n1 | 0.221%
Cc1cccc(C)c1OCCCN1CCC(C)CC1 | 2.25%
O=C(O)C1CSC(c2ccccc2O)N1 (stereo not shown) | -1.45%
COCCNC(=O)C1CCCN(c2ncnc3onc(-c4ccc(F)cc4)c23)C1 (stereo not shown) | -1.79%
Cc1ccc(C2CCN(C(=O)c3cnn(C)c3C3CCN(C(=O)OC(C)(C)C)CC3)C2)cc1 (stereo not shown) | 5.09%

Structure (SMILES) | % Inhibition @ 10 uM
CC(C)c1ccc(/C=C/C(=O)Nc2cccc(C(F)(F)F)c2)cc1 | -2%
COc1cc(C(=O)NCCC(=O)NC2CCC(C)CC2)cc(OC)c1OC (stereo not shown) | 1.16%
Cc1c(C(=O)N2CCN(c3cccc(Cl)c3)CC2)cccc1[N+](=O)[O-] | 4.9%
CN(C)/C=C/C=C1C(=O)CC(C)(C)CC1=O | 1.62%
Cc1ccc2c(c1)[C@@H]1CN(C)CC[C@H]1N2C(=O)C12CC3CC(CC(C3)C1)C2 | 8.92%
Cc1ccc(CNC(=O)C2(NS(=O)(=O)c3cccc4cccnc34)CCCCC2)cc1 | -0.692%
CCn1c(C(=O)O)c(CC(=O)NC2CCCCCC2)c2ccccc21 | -4.74%
Cc1ccc(NC(=O)c2cccc([N+](=O)[O-])c2)cc1C | 0.135%
O=C(Nc1ccccc1)N1CCOCC1 | -3.95%
Cc1ccc(S(=O)(=O)Cc2ccc(C(=O)NCc3ccc4c(c3)OCO4)o2)cc1 | 0.458%
O=C(O)CN1CC(=O)Oc2ccccc21 | -5.5%
O=C(CN1C(=O)c2cccc3cccc1c23)NC1CC2CCC1C2 (stereo not shown) | 2.06%
Cc1ccc(-n2c(-c3ccccc3)cc3c2CC(C)(C)CC3=O)cc1C | 3.61%
Sc1nnc(-c2ccncc2)n1-c1ccccc1 | 1%
CCOC(=O)c1[nH]c2ccccc2c1NC(=O)C(C)(C)C | 0.121%
CCn1c(CCNC(=O)Cc2ccccc2)nc2ccccc21 | -0.58%
CC(=O)Nc1ccc(S(=O)(=O)Nc2nc3ccccc3nc2Nc2ccccc2)cc1 | -0.216%
CCOC(=O)c1c(CN2CCOCC2)n(-c2ccccc2)c2cc(Br)c(O)cc12 | 4.95%
Cc1ccc(C2(c3ccc(C)o3)C(=O)Nc3ccccc32)o1 | 4.68%
CCNC(=O)C12N=CNN=C1N(C)C(=O)N2C (stereo not shown) | -5.15%
